Test results taken from US20190321426A1, “COMBINATION THERAPIES WITH CANNABIS PLANT EXTRACT” (TIKUN OLAM LTD, priority 2016, published 2019).

Test system: infiltration of immune cells into the spinal cord in EAE mice
Experiment: Histology of immune cell infiltration into the spinal cord in EAE mice (eosin/hematoxylin)
Conditions: sixty days after PLP injection; versus non-treated control mice

With glatiramer acetate [Copaxone] the “infiltration of immune cells into the spinal cord” value was “almost total reduction”.
